# Measurements: the supplement of paper PMC8728848
# Some of the results follow.
# B1: PX9937F-bfa-516-16-516 (Bacteroides fragilis) (protein)
# chain: LDIDPTSSIADSNYWKTEAQFSTFNVGLHALLRECSFNFFLLGEPRADIYGDVPFGGEATQGMERLPFNTINKENTGISNFAGMYKVINQINLMIAKTKETTVLSEAGKNYYLGEAYGMRAYLYFHLLRSWGDVILYLDYTNGASLDLSNLSKAASPAEEVMKQIKEDITASEKGFGSDYSFKYGRYYWSMAATQMLKGEVYLWSGRQMGGGTADYTTAKTALQSIVSNANVSLQDDFSKVFAYNNKDNSEIIFSIRNAKDEYNMWDDRFRQNLVPQQAYMTSTYCNKEGVSFKDLPEGQLNGLIRLQIRYDLYNKAFRDGDTRKDASMTAVYQKQQDGTVKYIAPFCNKYQGVLLDGASQRSFLNDYPIYRYADCLLLLAEAKALLGEDPTAEINQVRERAYGKEFFEANKATLAYPNDKGDFYTDNKYMSGDEDPLEAILKERMREFMFEGKRWYDLRLLGADYVTKRTSAVATRLLWPINESVLTDNPALKQTPGYQN
# Columns and labels:
# Assay in all cases: glycan array binding signal (z-score within array); higher = stronger binding
# Conditions in all cases: glycan notation: IUPAC condensed, linker removed
# [1] = molecular target: Neu5Ac(a2-3)Gal(b1-4)GlcNAc(b1-6)GalNAc
# Procedure, shortened: (§1)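 Columns mapping to the same glycan were averaged after glycan names were converted to IUPAC-condensed notation. The data come from 3228 arrays in the Consortium for Functional Glycomics database, limited to those with an available protein sequence. Binding is reported as a within-array Z-score averaged across arrays of one protein sequence and across linkers.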
# [2] = molecular target: Neu5Ac(a2-3)Gal(b1-4)GlcNAc(b1-6)[Gal(b1-3)]GalNAc
# Procedure, shortened: as §1
# [3] = molecular target: Neu5Ac(a2-3)Gal(b1-4)GlcNAc(b1-6)[Neu5Ac(a2-3)Gal(b1-3)]GalNAc
# Procedure, shortened: as §1
# [4] = molecular target: Neu5Ac(a2-3)Gal(b1-4)GlcNAc6S
# Procedure, shortened: as §1
# [5] = molecular target: Neu5Ac(a2-3)Gal(b1-4)[Fuc(a1-3)]GlcNAc
# Procedure, shortened: as §1
# [6] = molecular target: Neu5Ac(a2-3)Gal(b1-4)[Fuc(a1-3)]GlcNAc(b1-2)Man
# Procedure, shortened: as §1
# [7] = molecular target: Neu5Ac(a2-3)Gal(b1-4)[Fuc(a1-3)]GlcNAc(b1-3)Gal
# Procedure, shortened: as §1
# [8] = molecular target: Neu5Ac(a2-3)Gal(b1-4)[Fuc(a1-3)]GlcNAc(b1-3)Gal(b1-4)GlcNAc
# Procedure, shortened: as §1
# [9] = molecular target: Neu5Ac(a2-3)Gal(b1-4)[Fuc(a1-3)]GlcNAc(b1-3)Gal(b1-4)[Fuc(a1-3)]GlcNAc(b1-3)Gal(b1-4)[Fuc(a1-3)]GlcNAc
# Procedure, shortened: as §1
# [10] = molecular target: Neu5Ac(a2-3)Gal(b1-4)[Fuc(a1-3)]GlcNAc(b1-3)GalNAc
# Procedure, shortened: as §1
# [11] = molecular target: Neu5Ac(a2-3)Gal(b1-4)[Fuc(a1-3)]GlcNAc(b1-6)[Gal(b1-3)]GalNAc
# Procedure, shortened: as §1
# [12] = molecular target: Neu5Ac(a2-3)Gal(b1-4)[Fuc(a1-3)]GlcNAc(b1-6)[Neu5Ac(a2-3)Gal(b1-3)]GalNAc
# Procedure, shortened: as §1
# [13] = molecular target: Neu5Ac(a2-3)Gal(b1-4)[Fuc(a1-3)]GlcNAc6S
# Procedure, shortened: as §1
# [14] = molecular target: Neu5Ac(a2-3)Gal6S(b1-4)GlcNAc
# Procedure, shortened: as §1
# [15] = molecular target: Neu5Ac(a2-3)Gal6S(b1-4)[Fuc(a1-3)]GlcNAc
# Procedure, shortened: as §1
# Neu5Ac(a2-3)GalNAc = molecular target: Neu5Ac(a2-3)GalNAc
# Procedure, shortened: as §1
# [16] = molecular target: Neu5Ac(a2-3)GalNAc(b1-4)GlcNAc
# Procedure, shortened: as §1
# [17] = molecular target: Neu5Ac(a2-3)[GalNAc(b1-4)]Gal(b1-4)Glc
# Procedure, shortened: as §1
# [18] = molecular target: Neu5Ac(a2-3)[GalNAc(b1-4)]Gal(b1-4)GlcNAc
# Procedure, shortened: as §1
# [19] = molecular target: Neu5Ac(a2-3)[GalNAc(b1-4)]Gal(b1-4)GlcNAc(b1-3)GalNAc
# Procedure, shortened: as §1
# [20] = molecular target: Neu5Ac(a2-3)[Neu5Ac(a2-6)]GalNAc
# Procedure, shortened: as §1
# Neu5Ac(a2-6)Gal = molecular target: Neu5Ac(a2-6)Gal
# Procedure, shortened: as §1
# [21] = molecular target: Neu5Ac(a2-6)Gal(b1-3)GlcNAc(b1-3)[Gal(b1-4)GlcNAc(b1-6)]Gal(b1-4)Glc
# Procedure, shortened: as §1
# Neu5Ac(a2-6)Gal(b1-4)Glc = molecular target: Neu5Ac(a2-6)Gal(b1-4)Glc
# Procedure, shortened: as §1
# [22] = molecular target: Neu5Ac(a2-6)Gal(b1-4)GlcNAc
# Procedure, shortened: as §1
# [23] = molecular target: Neu5Ac(a2-6)Gal(b1-4)GlcNAc(b1-2)Man
# Procedure, shortened: as §1
# [24] = molecular target: Neu5Ac(a2-6)Gal(b1-4)GlcNAc(b1-2)Man(a1-3)Man(b1-4)GlcNAc(b1-4)GlcNAc
# Procedure, shortened: as §1
# [25] = molecular target: Neu5Ac(a2-6)Gal(b1-4)GlcNAc(b1-2)Man(a1-3)[Gal(b1-4)GlcNAc(b1-2)Man(a1-6)]Man(b1-4)GlcNAc(b1-4)GlcNAc
# Procedure, shortened: as §1
# [26] = molecular target: Neu5Ac(a2-6)Gal(b1-4)GlcNAc(b1-2)Man(a1-3)[GlcNAc(b1-2)Man(a1-6)]Man(b1-4)GlcNAc(b1-4)GlcNAc
# Procedure, shortened: as §1
# [27] = molecular target: Neu5Ac(a2-6)Gal(b1-4)GlcNAc(b1-2)Man(a1-3)[GlcNAc(b1-4)][Neu5Ac(a2-6)Gal(b1-4)GlcNAc(b1-2)Man(a1-6)]Man(b1-4)GlcNAc(b1-4)GlcNAc
# Procedure, shortened: as §1
# [28] = molecular target: Neu5Ac(a2-6)Gal(b1-4)GlcNAc(b1-2)Man(a1-3)[Man(a1-6)]Man(b1-4)GlcNAc(b1-4)GlcNAc
# Procedure, shortened: as §1
# [29] = molecular target: Neu5Ac(a2-6)Gal(b1-4)GlcNAc(b1-2)Man(a1-3)[Neu5Ac(a2-3)Gal(b1-4)GlcNAc(b1-2)Man(a1-6)]Man(b1-4)GlcNAc(b1-4)GlcNAc
# Procedure, shortened: as §1
# [30] = molecular target: Neu5Ac(a2-6)Gal(b1-4)GlcNAc(b1-2)Man(a1-3)[Neu5Ac(a2-6)Gal(b1-4)GlcNAc(b1-2)Man(a1-6)]Man(b1-4)GlcNAc(b1-4)GlcNAc
# Procedure, shortened: as §1
# [31] = molecular target: Neu5Ac(a2-6)Gal(b1-4)GlcNAc(b1-2)Man(a1-3)[Neu5Ac(a2-6)Gal(b1-4)GlcNAc(b1-2)Man(a1-6)]Man(b1-4)GlcNAc(b1-4)[Fuc(a1-6)]GlcNAc
# Procedure, shortened: as §1
# [32] = molecular target: Neu5Ac(a2-6)Gal(b1-4)GlcNAc(b1-2)Man(a1-6)Man(b1-4)GlcNAc(b1-4)GlcNAc
# Procedure, shortened: as §1
# [33] = molecular target: Neu5Ac(a2-6)Gal(b1-4)GlcNAc(b1-2)Man(a1-6)[Gal(b1-4)GlcNAc(b1-2)Man(a1-3)]Man(b1-4)GlcNAc(b1-4)GlcNAc
# Procedure, shortened: as §1
# [34] = molecular target: Neu5Ac(a2-6)Gal(b1-4)GlcNAc(b1-2)Man(a1-6)[GlcNAc(b1-2)Man(a1-3)]Man(b1-4)GlcNAc(b1-4)GlcNAc
# Procedure, shortened: as §1
# [35] = molecular target: Neu5Ac(a2-6)Gal(b1-4)GlcNAc(b1-2)Man(a1-6)[Man(a1-3)]Man(b1-4)GlcNAc(b1-4)GlcNAc
# Procedure, shortened: as §1
# [36] = molecular target: Neu5Ac(a2-6)Gal(b1-4)GlcNAc(b1-2)[Neu5Ac(a2-6)Gal(b1-4)GlcNAc(b1-4)]Man(a1-3)[GlcNAc(b1-4)][Neu5Ac(a2-6)Gal(b1-4)GlcNAc(b1-2)[Neu5Ac(a2-6)Gal(b1-4)GlcNAc(b1-6)]Man(a1-6)]Man(b1-4)GlcNAc(b1-4)GlcNAc
# Procedure, shortened: as §1
# [37] = molecular target: Neu5Ac(a2-6)Gal(b1-4)GlcNAc(b1-2)[Neu5Ac(a2-6)Gal(b1-4)GlcNAc(b1-4)]Man(a1-3)[GlcNAc(b1-4)][Neu5Ac(a2-6)Gal(b1-4)GlcNAc(b1-4)Man(a1-6)]Man(b1-4)GlcNAc(b1-4)GlcNAc
# Procedure, shortened: as §1
# [38] = molecular target: Neu5Ac(a2-6)Gal(b1-4)GlcNAc(b1-2)[Neu5Ac(a2-6)Gal(b1-4)GlcNAc(b1-6)]Man(a1-6)[Neu5Ac(a2-6)Gal(b1-4)GlcNAc(b1-2)Man(a1-3)][GlcNAc(b1-4)]Man(b1-4)GlcNAc(b1-4)GlcNAc
# Procedure, shortened: as §1
# [39] = molecular target: Neu5Ac(a2-6)Gal(b1-4)GlcNAc(b1-3)Gal(b1-3)GlcNAc
# Procedure, shortened: as §1
# [40] = molecular target: Neu5Ac(a2-6)Gal(b1-4)GlcNAc(b1-3)Gal(b1-4)GlcNAc
# Procedure, shortened: as §1
# [41] = molecular target: Neu5Ac(a2-6)Gal(b1-4)GlcNAc(b1-3)Gal(b1-4)GlcNAc(b1-2)Man(a1-3)[Neu5Ac(a2-6)Gal(b1-4)GlcNAc(b1-3)Gal(b1-4)GlcNAc(b1-2)Man(a1-6)]GalNAc
# Procedure, shortened: as §1
# [42] = molecular target: Neu5Ac(a2-6)Gal(b1-4)GlcNAc(b1-3)Gal(b1-4)GlcNAc(b1-3)Gal(b1-4)GlcNAc
# Procedure, shortened: as §1
# [43] = molecular target: Neu5Ac(a2-6)Gal(b1-4)GlcNAc(b1-3)Gal(b1-4)GlcNAc(b1-3)Gal(b1-4)GlcNAc(b1-2)Man(a1-3)[Neu5Ac(a2-6)Gal(b1-4)GlcNAc(b1-3)Gal(b1-4)GlcNAc(b1-3)Gal(b1-4)GlcNAc(b1-2)Man(a1-6)]GalNAc
# Procedure, shortened: as §1
binder,measurement,setting,value
B1,glycan array binding signal (z-score),[1],0.348
same,glycan array binding signal (z-score),[2],-0.2
same,glycan array binding signal (z-score),[3],-0.386
same,glycan array binding signal (z-score),[4],-0.3
same,glycan array binding signal (z-score),[5],-0.331
same,glycan array binding signal (z-score),[6],-0.273
same,glycan array binding signal (z-score),[7],-0.167
same,glycan array binding signal (z-score),[8],0.286
same,glycan array binding signal (z-score),[9],-0.138
same,glycan array binding signal (z-score),[10],0.329
same,glycan array binding signal (z-score),[11],0.748
same,glycan array binding signal (z-score),[12],-0.116
same,glycan array binding signal (z-score),[13],-0.258
same,glycan array binding signal (z-score),[14],-0.093
same,glycan array binding signal (z-score),[15],-0.32
same,glycan array binding signal (z-score),Neu5Ac(a2-3)GalNAc,-0.194
same,glycan array binding signal (z-score),[16],-0.2
same,glycan array binding signal (z-score),[17],-0.278
same,glycan array binding signal (z-score),[18],0.098
same,glycan array binding signal (z-score),[19],-0.277
same,glycan array binding signal (z-score),[20],-0.255
same,glycan array binding signal (z-score),Neu5Ac(a2-6)Gal,0.025
same,glycan array binding signal (z-score),[21],-0.348
same,glycan array binding signal (z-score),Neu5Ac(a2-6)Gal(b1-4)Glc,0.133
same,glycan array binding signal (z-score),[22],-0.083
same,glycan array binding signal (z-score),[23],-0.194
same,glycan array binding signal (z-score),[24],0.091
same,glycan array binding signal (z-score),[25],-0.251
same,glycan array binding signal (z-score),[26],-0.019
same,glycan array binding signal (z-score),[27],-0.425
same,glycan array binding signal (z-score),[28],-0.23
same,glycan array binding signal (z-score),[29],-0.219
same,glycan array binding signal (z-score),[30],0.28
same,glycan array binding signal (z-score),[31],-0.009
same,glycan array binding signal (z-score),[32],1.35
same,glycan array binding signal (z-score),[33],-0.217
same,glycan array binding signal (z-score),[34],0.354
same,glycan array binding signal (z-score),[35],0.046
same,glycan array binding signal (z-score),[36],-0.095
same,glycan array binding signal (z-score),[37],0.207
same,glycan array binding signal (z-score),[38],-0.153
same,glycan array binding signal (z-score),[39],-0.221
same,glycan array binding signal (z-score),[40],-0.312
same,glycan array binding signal (z-score),[41],-0.072
same,glycan array binding signal (z-score),[42],-0.435
same,glycan array binding signal (z-score),[43],0.284
